For 24 compounds, cytotoxicity call and growth inhibition call results are on record in the antibiotic and cytotoxicity screens of Wong et al. (2023).

Test [1] has as its system HSkMC (human skeletal muscle cells). Kind of test: cytotoxicity call (relative viability < 0.9). The note with it: 10 µM.
Test [2] concerns HepG2. Briefly: cytotoxicity call (relative viability < 0.9). The note with it: 10 µM.
The test system of test [3] is S. aureus RN4220. Kind of test: growth inhibition call (relative growth <= 0.2). The note with it: 50 µM.

The other results are listed elsewhere or left out.

Take `C[C@@H]1CN([C@H](C)CO)C(=O)Cc2cc(NC(=O)Cc3ccccc3)ccc2O[C@@H]1CN(C)S(=O)(=O)c1ccccc1`: the cytotoxicity call in test [1] and in test [2] was “inactive” each time. In addition, the growth inhibition call in test [3] is “inactive”.
On to `C[C@H](CO)N1C[C@H](C)[C@H](CN(C)S(=O)(=O)c2cccs2)Oc2ncc(C#CCN(C)C)cc2C1=O`, for which the cytotoxicity call in test [1] and in test [2] was “inactive” throughout. In addition, the growth inhibition call in test [3] is “inactive”.
`COc1ccc(CN(C)C[C@H]2OCCCC[C@H](C)Oc3ccc(NC(=O)CCC(F)(F)F)cc3C(=O)N([C@@H](C)CO)C[C@@H]2C)cc1`: the cytotoxicity call in test [1] and in test [2] was “inactive” each time. Moreover, the growth inhibition call in test [3] is “inactive”.
With `COc1ccc(S(=O)(=O)Nc2ccc3c(c2)C(=O)N([C@@H](C)CO)C[C@H](C)[C@@H](CN(C)Cc2ccc(C(F)(F)F)cc2)OCCCC[C@@H](C)O3)cc1`, in test [1], the cytotoxicity call is “inactive”. Further, the cytotoxicity call in test [2] is “active”. In addition, in test [3], the growth inhibition call was “inactive”.
Take `C[C@@H]1CN([C@@H](C)CO)C(=O)c2cccc(NC(=O)C3CC3)c2O[C@@H]1CN(C)C(=O)NC1CCCCC1`: the cytotoxicity call in test [1] and in test [2] was “inactive” in each case. Also, the growth inhibition call in test [3] is “inactive”.
In the case of `O=[N+]([O-])c1cccc2c1nnn2[C@H](CO)OCCO`, the cytotoxicity call in test [1] and in test [2] was “inactive” in each case. In addition, in test [3], the growth inhibition call is “inactive”.
Take `O=C(C[C@H]1C=C[C@@H](NC(=O)CN2CCOCC2)[C@H](CO)O1)NCc1cccc(F)c1`: the cytotoxicity call in test [1] and in test [2] was “inactive” throughout. Moreover, the growth inhibition call in test [3] was “inactive”.
Take `C=CCOC(=O)[C@H]1[C@@H]2C(=O)O[C@@H](c3ccccc3)[C@@H](c3ccccc3)N2[C@@H](c2ccc(OCCOC(=O)[C@H]3C[C@H]4C(=O)N[C@@H](CCCCN(C)C)C(=O)N4[C@H]3c3ccc(O)cc3)cc2)[C@]12C(=O)Nc1ccc(I)cc12`: the cytotoxicity call in test [1] and in test [2] was “inactive” each time. Moreover, the growth inhibition call in test [3] was “inactive”.
Take `C[C@@H]1CCCCO[C@@H](CN(C)S(=O)(=O)c2ccccc2)[C@H](C)CN([C@@H](C)CO)C(=O)c2cc(NS(=O)(=O)c3cn(C)cn3)ccc2O1`: the cytotoxicity call in test [1] and in test [2] was “inactive” throughout. Moreover, the growth inhibition call in test [3] is “inactive”.
`C[C@@H]1CN([C@@H](C)CO)C(=O)Cc2cc(NS(=O)(=O)c3cn(C)cn3)ccc2O[C@@H]1CN(C)S(=O)(=O)c1ccccc1`: the cytotoxicity call in test [1] and in test [2] was “inactive” throughout. Further, the growth inhibition call in test [3] is “inactive”.
As for `O=C(O)c1cc(=O)[nH]c(=O)[nH]1`, the cytotoxicity call in test [1] and in test [2] was “inactive” throughout. For the same compound, the growth inhibition call in test [3] was “inactive”.
With `C[C@@H]1CCCCO[C@H](CN(C)C(=O)Nc2ccc(C(F)(F)F)cc2)[C@H](C)CN([C@@H](C)CO)C(=O)c2cc(N(C)C)ccc2O1`, the cytotoxicity call in test [1] and in test [2] was “inactive” each time. Besides, the growth inhibition call in test [3] is “inactive”.
Regarding `Cc1noc(C)c1NC(=O)N(C)C[C@@H]1OCCCC[C@@H](C)Oc2ccc(NC(=O)Nc3ccc(F)cc3)cc2C(=O)N([C@H](C)CO)C[C@@H]1C`, the cytotoxicity call in test [1] and in test [2] was “inactive” throughout. Further, in test [3], the growth inhibition call was “inactive”.
Consider `Cc1ccc(S(=O)(=O)N(C)C[C@H]2OCCCC[C@H](C)Oc3ccc(NC(=O)Nc4ccc5c(c4)OCO5)cc3C(=O)N([C@@H](C)CO)C[C@@H]2C)cc1`, for which the cytotoxicity call in test [1] and in test [2] was “inactive” each time. The growth inhibition call in test [3] was “inactive”.
With `C[C@H](CO)N1C[C@H](C)[C@H](CN(C)S(=O)(=O)c2ccc(F)cc2)Oc2ncc(C#CC3(O)CCCC3)cc2C1=O`, the cytotoxicity call in test [1] and in test [2] was “inactive” in each case. Further, the growth inhibition call in test [3] is “inactive”.
As for `CNCc1n[nH]c2c1CCC2`, the cytotoxicity call in test [1] and in test [2] was “inactive” throughout. For the same compound, the growth inhibition call in test [3] is “inactive”.
As for `Cc1noc(C)c1NC(=O)Nc1ccc2c(c1)CC(=O)N([C@@H](C)CO)C[C@H](C)[C@H](CN(C)C(=O)Nc1cccc3ccccc13)O2`, the cytotoxicity call in test [1] and in test [2] was “inactive” each time. In addition, the growth inhibition call in test [3] was “inactive”.
In the case of `CC(C)NC(=O)Nc1ccc2c(c1)C(=O)N([C@H](C)CO)C[C@@H](C)[C@H](CN(C)S(=O)(=O)c1cccs1)O2`, the cytotoxicity call in test [1] and in test [2] was “inactive” throughout. Further, the growth inhibition call in test [3] is “inactive”.
`CCN(CC)c1ccc(N2CC=C[C@@]34O[C@@H]5/C=C\CC[C@H](C)OC(=O)[C@@H]5[C@H]3C(=O)N(CCO)[C@@H]4C2=O)cc1`: the cytotoxicity call in test [1] and in test [2] was “inactive” in each case. Moreover, the growth inhibition call in test [3] is “inactive”.
Consider `C[C@H](CO)N1C[C@H](C)[C@H](CN(C)CC2CC2)OCCCC[C@H](C)Oc2ccc(NS(=O)(=O)c3ccc(Cl)cc3)cc2C1=O`, for which the cytotoxicity call in test [1] and in test [2] was “inactive” throughout. The growth inhibition call in test [3] is “inactive”.
Regarding `C[C@H](CO)N1C[C@H](C)[C@@H](CN(C)Cc2ccncc2)Oc2ccc(NC(=O)CCN3CCOCC3)cc2CC1=O`, the cytotoxicity call in test [1] and in test [2] was “inactive” throughout. Also, the growth inhibition call in test [3] is “inactive”.
With `C[C@H]1CCCCO[C@@H](CN(C)C(=O)Nc2ccccc2)[C@@H](C)CN([C@@H](C)CO)C(=O)c2cc(NC(=O)Nc3ccc(F)cc3)ccc2O1`, the cytotoxicity call in test [1] and in test [2] was “inactive” each time. Further, the growth inhibition call in test [3] was “inactive”.
Consider `N#CCC1CCNCC1`, for which the cytotoxicity call in test [1] and in test [2] was “inactive” throughout. For the same compound, the growth inhibition call in test [3] is “inactive”.
For `C[C@@H]1CCCCO[C@@H](CN(C)Cc2ccc(C(=O)Nc3ccccc3N)cc2)[C@@H](C)CN([C@H](C)CO)C(=O)c2cc(NS(=O)(=O)c3ccccc3)ccc2O1`, the cytotoxicity call in test [1] and in test [2] was “inactive” throughout. The growth inhibition call in test [3] is “inactive”.
